# The inconclusive results got no clear call from the source; some entries with a clear call stand among them for comparison. Potencies beside an inconclusive call are fits to weak or partial responses and may not hold up. Active and inactive are the calls of the source. Calls come from the whole dose curve; as a rule, active = well fitted activation curve with a large enough effect in the signal ratio, with a control signal flat (not every such curve was filed as active); inconclusive = small, poorly fitted or top-dose-only effect, or effect the other way, or a change in a side signal; inactive = flat fitted curve, though single readings scatter; the % refers to the signal ratio.
# Assay: qHTS Assay for Identification of Small Molecule Agonists for Hypoxia Response Element Signaling Pathway (AID 914); for activation: top concentration of the series differs between compounds; % of control where 0% means no effect
# Details: ME-180 (cervical carcinoma) HRE-bla reporter, beta-lactamase ratio, CoCl2, 17 h; activation: stronger effect = higher value
# In short: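 A beta-lactamase reporter under hypoxia response element control in ME-180 cells served as the system. Compound titrations plus EC50 CoCl2 ran 17 h at 37 degrees Celsius; AC50 values were fitted from %Activity.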
# Potency is the fitted concentration of half-maximal effect; tags give direction and shape of the fitted curve or compound fluorescence and quenching.
SMILES,Potency,activation
O=C(c1cccc2ccccc12)N1CCC(N2CCN(c3ccccc3)CC2)CC1,"inconclusive: 6.31 µM [inhibitor, partial curve]",–
O=S(=O)(c1ccccc1)N1CCC2(CCN(c3cccc(-c4ccccc4)c3)CC2)CC1,"inconclusive: 5.01 µM [inhibitor, single point]",–
COc1ccc(C(=O)N2CCCC(c3ccccc3)C2)cc1 (configuration not stated),"inconclusive: 12.6 µM [inhibitor, single point]",–
CC(=O)[C@H]1CC[C@@H]2[C@H]3CC=C4C[C@@H](O)CC[C@]4(C)[C@H]3CC[C@]12C,–,inconclusive: -25.3%
CCC1(C)Cc2c(sc3[nH]c(=O)[nH]c(=O)c23)CS1 (configuration not stated),"inconclusive: 10 µM [inhibitor, partial curve]",–
Cc1cc(CN2CCCCC2)c(O)c(CN2CCCCC2)c1,–,inactive: 2.92%
Cn1ccnc1SCCC#N,–,inactive: 14%
Cc1cc(C)n(C(=O)CNC(=O)C2COc3ccccc3O2)n1 (configuration not stated),–,inconclusive: -13.8%
COc1ccc(OC)c(C2/C(=C(\O)c3ccc(OC)c(Cl)c3)C(=O)C(=O)N2CCN(C)C)c1 (configuration not stated),–,inconclusive: -15.9%
CN(Cc1ccco1)c1cc(-c2ccoc2)ncn1,"inconclusive: 1 µM [activator, single point]",–
CC(C)(C)c1ccc(C(=O)C=[N+]=[N-])cc1,"inconclusive: 5.01 µM [activator, single point]",–
CC(=O)OC[C@@H]1O[C@H](C/C=N\OC[C@@H](O)COCc2ccco2)C=C[C@@H]1OC(C)=O,–,inconclusive: -5.17%
